In all, about 350,000 compounds went through this assay and about 9,900 (2.8%) were called active. The inconclusive results got no clear call from the source; some entries with a clear call stand among them for comparison. The call rests on the fitted dose curve; in most records, active means well fitted activation curve with a large enough effect; inconclusive means small, poorly fitted or top-dose-only effect; inactive means no such curve, though single readings can be large or run the other way. Potencies of inconclusive entries are left out as doubtful fits.
Assay: A quantitative high throughput screen for small molecules that induce DNA re-replication in MCF 10a normal breast cells. Further: nearly all actives have a fitted effect of over 50% in size. On activity, positive = re-replication: % of control where 0% means no effect.
Conditions: MCF 10A DNA re-replication, Hoechst nuclear intensity, 48 h; activity, positive = re-replication: at 46.1 µM (top of the series)
Potency means the concentration at half of the fitted maximal effect; tags describe the fitted curve by direction and shape.

Q: Which Potency does the source give for `Cc1c(Cl)cccc1NC(=O)C1Cc2ccccc2CN1C(=O)c1ccccc1` (stereo not drawn) here?
A: The Potency was inconclusive [activator, partial curve, poor fit].

Q: For `O=C(/C=C/c1ccccc1)N1CCOCC1`, which “activity, positive = re-replication” value is on record?
A: Its value is inactive: 5.43%.

Q: Which “activity, positive = re-replication” value does the source give for `O=C(c1ccc2c(c1)OCCO2)C1CCN(C(=O)c2ccc(F)cc2)CC1` here?
A: The value was inactive: -0.877%.

Q: Which Potency does the source give for `N#Cc1cc(C(=O)c2ccccc2O)cn(-c2nccs2)c1=O` here?
A: Its Potency is inconclusive [activator, full curve, poor fit].

Q: For `O/C(=C\c1nc2ccccc2nc1/C=C(\O)c1ccccc1)c1ccccc1`, which “activity, positive = re-replication” value is on record?
A: Its value is inactive: 11.4%.

Q: Which Potency does the source give for `CN(C)c1ccc(-n2cccc2/C=C/[N+](=O)[O-])cc1` here?
A: Its Potency is inconclusive [activator, single point].

Q: Which Potency does the source give for `O=C(C1=C(O)C(=O)N(c2ncccn2)C1c1cccc(Cl)c1)c1ccco1` (stereo not drawn) here?
A: The Potency was inconclusive [activator, single point].

Q: With `CCOC(=O)c1ccc(S(=O)(=O)Nc2cc(S(=O)(=O)Nc3ccc(OC)cc3)ccc2O)cc1` as the compound, how does the Potency read?
A: The Potency was inconclusive [activator, single point].

Q: With `Cc1cc(C)[n+](-c2ccc(C(C)C)cc2)c2[nH]c(=O)[nH]c(=O)c12` as the compound, how does the Potency read?
A: Its Potency is inconclusive [activator, single point].

Q: With `CCCCCn1c(=O)[nH]c2cc(C(=O)NCCCN3CCC(C)CC3)ccc2c1=O` as the compound, how does the Potency read?
A: Its Potency is inconclusive [activator, partial curve, poor fit].

Q: For `Cc1ccc2c(c1)C1CN(C)CCC1N2S(=O)(=O)c1ccc(Oc2ccc([N+](=O)[O-])cc2)cc1` (stereo not drawn), which Potency is on record?
A: The Potency was inconclusive [activator, partial curve, poor fit].

Q: For `CCOc1ccccc1-c1nc2c([nH]1)c(=O)n(C)c(=O)n2C`, which “activity, positive = re-replication” value is on record?
A: The value was inactive: 1.59%.

Q: With `COC(CN(C(=O)CCl)C(C(=O)NC1CCCCC1)c1ccccc1C)OC` (stereo not drawn) as the compound, how does the Potency read?
A: Its Potency is inconclusive [activator, single point].

Q: For `CC(=O)Nc1ccc(NC(=O)C2CC(=O)N(c3cccc(Cl)c3)C2)cc1` (stereo not drawn), which “activity, positive = re-replication” value is on record?
A: Its value is inactive: -4.09%.

Q: For `CC1CCN(CCCn2c(SCC(=O)Nc3ccccc3Cl)nc3ccccc3c2=O)CC1`, which Potency is on record?
A: Its Potency is inconclusive [activator, single point].

Q: With `CCS(=O)(=O)N1CCC(C(=O)NCCc2ccc(C)cc2)CC1` as the compound, how does the “activity, positive = re-replication” value read?
A: The value was inactive: 28.1%.

Q: For `O=C1CC(N2CCSCC2)C(=O)N1c1cccc(Cl)c1` (stereo not drawn), which Potency is on record?
A: Its Potency is active: 0.82 µM.

Q: With `Cc1ccc(-c2nc3ncccc3o2)cc1NC(=O)c1cccnc1` as the compound, how does the Potency read?
A: The Potency was inconclusive [activator, partial curve, poor fit].

Q: For `COc1cc(/C=N/NC(N)=S)ccc1OCC(=O)Nc1ccc(C)c(C)c1`, which Potency is on record?
A: Its Potency is active: 14.6 µM.

Q: For `CSC1=C(C#N)C(=O)NC(c2ccc(Cl)cc2)S1` (stereo not drawn), which Potency is on record?
A: The Potency was inconclusive [activator, single point].

Q: With `CN(C)c1cc[n+](CC(=O)Nc2cc(C(F)(F)F)ccc2Cl)cc1` as the compound, how does the Potency read?
A: Its Potency is inconclusive [activator, full curve, poor fit].

Q: Which Potency does the source give for `COc1ccc(-c2cccc(-c3cc(=O)oc4cc(OC)c(OC)c(OC)c34)c2)cc1` here?
A: Its Potency is inconclusive [activator, partial curve, poor fit].

Q: With `CCCN1CCN(C(=S)Nc2sc(CC)cc2C(=O)OC)CC1` as the compound, how does the Potency read?
A: Its Potency is inconclusive [activator, partial curve, poor fit].

Q: With `Clc1ccc(CNc2ncnc3[nH]ncc23)cc1Cl` as the compound, how does the Potency read?
A: Its Potency is inconclusive [activator, full curve, poor fit].

Q: With `Cc1ccc(SCc2nc3ccccc3n2CC(=O)Nc2ccccc2)cc1` as the compound, how does the Potency read?
A: The Potency was inconclusive [activator, partial curve, poor fit].

Q: Which Potency does the source give for `COc1ccc(C2=Nn3c(nnc3-c3ccccc3F)SC2)cc1OCC1CC1` here?
A: Its Potency is inconclusive [activator, partial curve, poor fit].

Q: With `CC(/C=N/N1CCN(c2ccccn2)CC1)=C\c1ccccc1` as the compound, how does the “activity, positive = re-replication” value read?
A: Its value is inactive: 13%.

Q: Which Potency does the source give for `CC(C)[C@H](NC(=O)c1ccccc1)C(=O)OCC(=O)/C=C1/N(C)c2ccccc2C1(C)C` here?
A: Its Potency is inconclusive [activator, partial curve, poor fit].

Q: Which Potency does the source give for `COc1ccc(C2OC(=O)CC2C(=O)NCc2ccc(F)cc2)cc1OC` (stereo not drawn) here?
A: The Potency was inconclusive [activator, partial curve, poor fit].

Q: For `Cc1ccc(SC(CC(=O)c2ccc(F)cc2)C(=O)O)cc1` (stereo not drawn), which Potency is on record?
A: The Potency was inconclusive [activator, single point].

Q: For `CC1CCCCC1NC(=O)c1cc2c(s1)CS(=O)(=O)C2` (stereo not drawn), which Potency is on record?
A: Its Potency is inconclusive [activator, partial curve, poor fit].

Q: For `O=C1NCC(O)=C1C=NCCCO`, which Potency is on record?
A: The Potency was inconclusive [activator, partial curve, poor fit].

Q: With `c1ccc2c(c1)nc(Nc1ccc(N3CCCCC3)cc1)c1nncn12` as the compound, how does the Potency read?
A: The Potency was inconclusive [activator, partial curve, poor fit].

Q: With `COC(=O)Cc1csc(Nc2ccccc2)n1` as the compound, how does the “activity, positive = re-replication” value read?
A: The value was inactive: 15%.

Q: For `Cc1ccc(S(=O)(=O)Nc2nc3ccccc3nc2N2CCN(c3ccccc3F)CC2)cc1`, which Potency is on record?
A: Its Potency is inconclusive [activator, single point].

Q: For `O=c1cc(-c2ccc(Cl)cc2)[nH][nH]1`, which Potency is on record?
A: Its Potency is inconclusive [activator, partial curve, poor fit].

Q: For `CC(C)(Cc1ccccc1)/[N+]([O-])=C\c1ccc(C(F)(F)F)cc1`, which Potency is on record?
A: The Potency was inconclusive [activator, full curve, poor fit].

Q: For `S=C(NCc1ccccc1)NNc1nc2ccccc2[nH]1`, which Potency is on record?
A: Its Potency is inconclusive [activator, partial curve, poor fit].

Q: With `COC(=O)c1sccc1NC(=S)N1CCN(c2cccc(C)c2C)CC1` as the compound, how does the Potency read?
A: Its Potency is active: 4.11 µM.

Q: Which Potency does the source give for `Cc1ccc(S(=O)(=O)Nc2ccccc2N2CCOCC2)cc1` here?
A: The Potency was inconclusive [activator, single point].

Q: For `CCCCCCN(C(=O)CCCN1C(=O)NC(c2ccc([N+](=O)[O-])cc2)C(C(=O)OCc2ccccc2)=C1C)C(C)C(=O)NCCCC` (stereo not drawn), which “activity, positive = re-replication” value is on record?
A: The value was inactive: -13.7%.

Q: For `Cc1ccc(C(=O)Nc2ccc(CC(=O)O)cc2)o1`, which “activity, positive = re-replication” value is on record?
A: Its value is inactive: -0.286%.

Q: For `Cc1ccc(CS(=O)(=O)Cc2ccc(C(=O)NC3CCCCCC3)o2)cc1`, which “activity, positive = re-replication” value is on record?
A: Its value is inactive: 6.15%.

Q: For `Cc1ccc(-c2csc3ncnc(N4CCN(C(=O)c5ccccc5)CC4)c23)cc1`, which Potency is on record?
A: Its Potency is inconclusive [activator, single point].

Q: Which Potency does the source give for `Cc1ccccc1Nc1nc(N)nc(CSc2nnnn2C)n1` here?
A: Its Potency is inconclusive [activator, partial curve, poor fit].

Q: Which “activity, positive = re-replication” value does the source give for `Fc1cccc(/C=N/NC(=S)Nc2ccccc2Cl)c1` here?
A: The value was inactive: 5.63%.

Q: With `CC(/C=C1\SC(=O)N(CC(=O)Nc2cccc(O)c2)C1=O)=C\c1ccccc1` as the compound, how does the Potency read?
A: Its Potency is inconclusive [activator, single point].

Q: With `O=C(NNC(=O)c1ccc(NC(=O)c2ccccc2)cc1)Nc1ccccc1` as the compound, how does the Potency read?
A: Its Potency is inconclusive [activator, single point].

Q: Which “activity, positive = re-replication” value does the source give for `COc1ccc(C(=O)NCc2nnc(SCC(=O)NO)n2Cc2ccccc2)cc1` here?
A: The value was inactive: 6.63%.

Q: With `COc1ccc(C(=O)c2sc3nc(-c4ccccc4)ccc3c2N)cc1` as the compound, how does the Potency read?
A: Its Potency is active: 3.66 µM.

Q: With `COC(=O)[C@]1(Cc2ccccc2)N[C@H](CN(C)S(=O)(=O)c2ccc(-c3ccccc3)cc2)[C@@H]2C(=O)N(C)C(=O)[C@@H]21` as the compound, how does the “activity, positive = re-replication” value read?
A: The value was inactive: 0.0774%.

Q: With `FC(F)c1nc2ccccc2[nH]1` as the compound, how does the “activity, positive = re-replication” value read?
A: The value was inactive: 1.33%.

Q: Which Potency does the source give for `COC(=O)Nc1ccc(S(=O)(=O)N2CCCC(C(=O)N3CC(C)OC(C)C3)C2)cc1` (stereo not drawn) here?
A: The Potency was inconclusive [activator, partial curve, poor fit].

Q: For `CCN(CC)c1ncnc2c1cnn2C`, which Potency is on record?
A: The Potency was inconclusive [activator, partial curve, poor fit].

Q: With `CC(C)CCNC(=O)C1CCC(CNS(=O)(=O)c2cccc3nsnc23)CC1` (stereo not drawn) as the compound, how does the Potency read?
A: Its Potency is inconclusive [activator, single point].

Q: Which “activity, positive = re-replication” value does the source give for `CCN(CC)S(=O)(=O)c1ccc(NC(=O)CSc2cccc[n+]2[O-])cc1` here?
A: Its value is inactive: 12.3%.

Q: Which “activity, positive = re-replication” value does the source give for `CN(C)c1ccc(/C=N/N(CCO)C2=NS(=O)(=O)c3ccccc32)cc1` here?
A: The value was inactive: 0.0504%.

Q: For `CCc1cc(=O)oc2cc(C)cc(OCC(=O)NC3CC3)c12`, which Potency is on record?
A: The Potency was inconclusive [activator, partial curve, poor fit].

Q: With `COc1ccc2c(Cl)c(C(=O)N/N=C/c3ccc4c(c3)OCO4)sc2c1` as the compound, how does the Potency read?
A: The Potency was inconclusive [activator, full curve].

Q: Which Potency does the source give for `CCOC(=O)c1ccccc1NS(=O)(=O)c1ccc(OCC)cc1` here?
A: The Potency was active: 13 µM.

Q: Which Potency does the source give for `O=C(/C=C/c1ccc(F)cc1)NCCC1=CCCCC1` here?
A: Its Potency is inconclusive [activator, partial curve, poor fit].

Q: With `CCC(=O)c1ccccc1OCCN1CCN(CC)CC1` as the compound, how does the Potency read?
A: Its Potency is inconclusive [activator, single point].

Q: For `COc1ccc(S(=O)(=O)N2CCOC2CNC(=O)C(=O)NCCN2CCOCC2)cc1` (stereo not drawn), which “activity, positive = re-replication” value is on record?
A: Its value is inactive: -0.81%.

Q: With `CCCN(C(=O)CSc1nnnn1-c1ccccc1OC)C1CCS(=O)(=O)C1` (stereo not drawn) as the compound, how does the “activity, positive = re-replication” value read?
A: The value was inactive: 3.49%.

Q: Which Potency does the source give for `COc1cc(OC)cc(OC(=O)c2ccc3c(=O)n4c(nc3c2)CCC4)c1` here?
A: Its Potency is inconclusive [activator, single point].

Q: With `Cc1cc(NS(=O)(=O)c2ccc(NC(=O)CSc3nnc(-c4ccco4)n3Cc3ccco3)cc2)nc(C)n1` as the compound, how does the Potency read?
A: The Potency was inconclusive [activator, single point].

Q: For `CCSC1=N/C(=C\c2ccccc2)C(=O)N1c1ccc(OC)cc1`, which Potency is on record?
A: The Potency was active: 14.6 µM.

Q: With `COc1ccc(CNC(=O)C2(CC3CC(c4ccccc4)=NO3)CCN(C(=O)C3(C)CC3)CC2)cc1` (stereo not drawn) as the compound, how does the Potency read?
A: The Potency was inconclusive [activator, partial curve, poor fit].
